In PubChem BioAssay AID504333 (National Center for Advancing Translational Sciences (NCATS), 2011):
In all, about 360,000 compounds went through this assay and about 16,000 (4.4%) were called active. This list was built around the results that the source calls inconclusive (neither active nor inactive); the mix of calls is not that of the screen. Calls follow the shape of the dose curve; as a rule, active = well fitted inhibition curve with a large enough effect; inconclusive = small, poorly fitted or top-dose-only effect; inactive = no such curve, though single readings can be large or run the other way. Potencies of inconclusive entries are doubtful fits and often do not repeat.

Molecular target: Bromodomain adjacent to zinc finger domain protein 2B (Homo sapiens) (UniProt Q9UIF8)
Test: qHTS Assay for Inhibitors of BAZ2B; also: nearly all actives have a fitted effect of over 60% in size
Conditions: AlphaScreen BAZ2B-H3K14Ac peptide displacement; series mostly up to 114 µM
Summary of the method: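 AlphaScreen luminescence quantifies BAZ2B engagement of H3K14Ac peptide; the protein and biotinylated peptide are both at 50 nM final, buffer PBS pH 7.4 with 0.01% Tween-20, all steps at room temperature.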
Potency is read from the fitted curve at half-maximal effect; tags tell the direction and shape of the fitted curve.

UniProt Q9UIF8, sequence (Q9UIF8 whole entry, looked up, the tested form may be a part): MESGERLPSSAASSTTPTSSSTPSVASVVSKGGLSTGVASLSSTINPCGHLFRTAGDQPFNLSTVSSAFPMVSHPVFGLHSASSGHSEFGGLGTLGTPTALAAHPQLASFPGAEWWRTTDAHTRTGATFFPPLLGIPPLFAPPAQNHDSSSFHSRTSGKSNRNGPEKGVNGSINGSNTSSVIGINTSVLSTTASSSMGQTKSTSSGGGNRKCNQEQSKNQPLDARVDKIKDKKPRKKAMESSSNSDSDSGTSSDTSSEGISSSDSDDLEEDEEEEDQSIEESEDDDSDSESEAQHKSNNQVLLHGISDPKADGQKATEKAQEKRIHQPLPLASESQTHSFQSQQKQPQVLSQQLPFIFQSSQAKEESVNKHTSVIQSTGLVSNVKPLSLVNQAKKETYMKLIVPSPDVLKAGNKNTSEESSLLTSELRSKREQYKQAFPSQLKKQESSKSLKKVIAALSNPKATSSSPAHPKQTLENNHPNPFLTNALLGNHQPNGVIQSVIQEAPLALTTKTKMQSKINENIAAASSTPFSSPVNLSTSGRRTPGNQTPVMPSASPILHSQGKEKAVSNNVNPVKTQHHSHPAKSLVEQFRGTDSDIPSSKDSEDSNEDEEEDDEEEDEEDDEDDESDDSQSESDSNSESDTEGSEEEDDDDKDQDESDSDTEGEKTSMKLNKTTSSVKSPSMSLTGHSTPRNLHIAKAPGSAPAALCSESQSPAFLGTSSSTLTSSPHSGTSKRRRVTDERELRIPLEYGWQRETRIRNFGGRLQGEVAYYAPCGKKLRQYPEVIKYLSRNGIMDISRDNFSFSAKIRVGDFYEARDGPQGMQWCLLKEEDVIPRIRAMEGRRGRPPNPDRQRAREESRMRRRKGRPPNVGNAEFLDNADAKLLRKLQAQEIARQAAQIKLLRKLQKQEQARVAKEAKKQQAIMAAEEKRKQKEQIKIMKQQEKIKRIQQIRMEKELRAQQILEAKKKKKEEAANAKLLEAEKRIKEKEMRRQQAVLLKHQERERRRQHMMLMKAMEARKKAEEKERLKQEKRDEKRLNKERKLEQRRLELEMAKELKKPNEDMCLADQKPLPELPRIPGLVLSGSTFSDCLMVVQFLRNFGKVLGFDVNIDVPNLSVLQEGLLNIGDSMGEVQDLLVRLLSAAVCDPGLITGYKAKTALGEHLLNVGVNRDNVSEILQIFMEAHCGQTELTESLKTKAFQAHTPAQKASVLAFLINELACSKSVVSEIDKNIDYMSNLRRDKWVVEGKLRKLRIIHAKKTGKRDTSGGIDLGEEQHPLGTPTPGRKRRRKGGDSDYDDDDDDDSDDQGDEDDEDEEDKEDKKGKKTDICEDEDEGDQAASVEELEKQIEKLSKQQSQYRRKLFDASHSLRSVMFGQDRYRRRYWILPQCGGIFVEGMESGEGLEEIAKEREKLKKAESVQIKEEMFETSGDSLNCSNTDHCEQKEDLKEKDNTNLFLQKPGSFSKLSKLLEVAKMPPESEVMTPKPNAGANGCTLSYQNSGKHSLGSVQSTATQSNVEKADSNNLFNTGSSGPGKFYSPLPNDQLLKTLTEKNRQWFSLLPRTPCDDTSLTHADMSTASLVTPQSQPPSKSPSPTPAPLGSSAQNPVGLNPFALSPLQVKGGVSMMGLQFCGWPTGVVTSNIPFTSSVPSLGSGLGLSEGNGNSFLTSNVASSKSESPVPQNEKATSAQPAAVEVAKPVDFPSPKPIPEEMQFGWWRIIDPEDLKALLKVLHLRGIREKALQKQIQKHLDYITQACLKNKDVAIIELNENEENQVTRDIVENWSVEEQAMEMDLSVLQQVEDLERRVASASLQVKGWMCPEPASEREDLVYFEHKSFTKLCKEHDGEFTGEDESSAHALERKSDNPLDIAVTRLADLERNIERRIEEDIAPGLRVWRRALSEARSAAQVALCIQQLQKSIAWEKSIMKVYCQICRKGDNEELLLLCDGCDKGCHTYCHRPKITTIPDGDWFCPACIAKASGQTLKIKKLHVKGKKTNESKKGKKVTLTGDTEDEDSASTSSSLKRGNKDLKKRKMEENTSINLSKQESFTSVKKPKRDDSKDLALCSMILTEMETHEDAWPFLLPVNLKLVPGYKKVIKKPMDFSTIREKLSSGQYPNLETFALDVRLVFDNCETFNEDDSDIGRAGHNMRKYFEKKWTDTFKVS

Row | Compound | Potency
1 | CCOC(=O)Cc1csc(N/N=C/c2ccc(Cl)cc2)n1 | inactive
2 | O=C(NC(=S)Nc1ccc(Cl)cc1)c1ccccc1 | inconclusive: 44.7 µM [inhibitor, partial curve]
3 | Cc1ccc2occ(-c3nn[nH]n3)c(=O)c2c1 | active: 50.1 µM
4 | CCN1C(c2ccccc2)C(C)C(=O)C(C)C1c1ccccc1 (centres undefined) | inactive
5 | Cc1ccc(S(=O)(=O)N2CCN(C(=O)C3Cc4ccccc4CN3C(=O)c3ccco3)CC2)cc1 (centres undefined) | inconclusive: 89.1 µM [inhibitor, single point]
6 | COc1ccc(Cl)cc1-n1c(CCC(=O)O)ccc1-c1ccc(C)cc1 | inconclusive: 50.1 µM [inhibitor, single point]
7 | O=C(CC1N=C2c3ccccc3N=C(SCc3ccccc3Cl)N2C1=O)NC1CCCCC1 (centres undefined) | inactive
8 | O=C(N/N=C/c1cc(O)ccc1Br)c1cccnc1 | active: 7.08 µM
9 | COc1ccccc1C1=Nn2c(nc3sc(C(=O)Nc4ccccc4Cl)c(C)c3c2=O)SC1 | inconclusive: 70.8 µM [inhibitor, single point]
10 | O=C(NCCc1ccccc1)c1ccc2nc(-c3ccco3)c(-c3ccco3)nc2c1 | active: 10 µM
11 | CCCS(=O)(=O)c1ccc(COC(=O)c2ccc(NC(C)=O)cc2)cc1 | inconclusive: 50.1 µM [inhibitor, partial curve]
12 | COc1ccc(-c2cn3c(n2)sc2cc(C(=O)NCc4ccccc4)ccc23)cc1 | inactive
13 | Cc1ccc(Cn2ncc3c(N4CCN(C)CC4)ncnc32)cc1 | inconclusive: 3.55 µM [inhibitor, single point]
14 | N#Cc1cc(Cl)c(NCC2CCCO2)cc1C#N (centres undefined) | inactive
15 | Cc1ccc(C)c(CN2C(=O)c3ccccc3S(=O)(=O)c3ccc(C(=O)N4CCN(Cc5ccccc5)CC4)cc32)c1 | inconclusive: 22.4 µM [inhibitor, full curve]
16 | COc1ccc(-n2c(SCC(=O)Nc3ccc4c(c3)OCO4)nc3c(c2=O)SCC3)cc1 | inconclusive: 22.4 µM [inhibitor, single point]
17 | CC(=O)c1cc(-c2ccccc2)n(CC(=O)N2CCCCC2)c1C | inconclusive: 70.8 µM [inhibitor, single point]
18 | CC1CCN(C(=O)CSc2nnc(-c3ccco3)o2)CC1 | inactive
19 | COc1ccccc1N1C(=O)c2cccnc2C1=O | inconclusive: 89.1 µM [inhibitor, single point]
20 | COc1ccc(CCNC(=O)CSc2cn(CCNC(=O)c3ccc(OC)c(OC)c3)c3ccccc23)cc1OC | inactive
21 | C/C(=N\NC(=O)C1CC1)c1cccs1 | inactive
22 | Cc1cc(C)c(NC(=O)CSc2nnc(SCC(=O)Nc3c(C)cc(C)cc3C)n2N)c(C)c1 | inconclusive: 31.6 µM [inhibitor, partial curve]
23 | OCCCCNc1cccc2ccccc12 | inconclusive: 79.4 µM [inhibitor, single point]
24 | Cn1c(CNc2ccc(O)cc2)nc2ccccc21 | inconclusive: 50.1 µM [inhibitor, partial curve]
25 | O=C(NCCNCCO)c1c(O)c2cccc3c2n(c1=O)CCC3 | inconclusive: 89.1 µM [inhibitor, single point]

Row | Compound | Potency
26 | O=S(Cc1ccc(Cl)cc1)CC(O)(c1ccccc1)c1ccccc1 (centres undefined) | inconclusive: 100 µM [inhibitor, single point]
27 | COc1ccccc1C(=O)N1N=C(c2ccc(NS(C)(=O)=O)cc2)CC1c1cccs1 (centres undefined) | inconclusive: 79.4 µM [inhibitor, single point]
28 | CCOc1ccc2nc(N(CCCN(C)C)C(=O)c3ccc4c(c3)CCCC4)sc2c1 | inconclusive: 31.6 µM [inhibitor, partial curve]
29 | COc1ccc(N2CCN(S(=O)(=O)CCNC(=O)c3ccc(Br)o3)CC2)cc1 | inactive
30 | O=C(Nc1ccccc1N1CCOCC1)c1cccc(Oc2ccccc2)c1 | inactive
31 | COc1cc2c(cc1OC)C(c1ccccc1)N(C(=O)c1ccco1)CC2 (centres undefined) | inactive
32 | CCCOc1ccc(C(=O)NNC(=S)NC(=O)c2cc(-c3ccccc3)nc3ccccc23)cc1 | inconclusive: 35.5 µM [inhibitor, full curve, poor fit]
33 | CCCNC(=O)c1ccc2c(=O)c(O)c(-c3ccsc3)[nH]c2c1 | inactive
34 | CC1CN(C(=O)N2CCC(C(=O)NCc3ccccc3F)CC2)c2cc(Cl)ccc2O1 (centres undefined) | inconclusive: 28.2 µM [inhibitor, partial curve]
35 | COc1ccccc1N1CCN(C(=O)Cn2c(=O)nc(-c3ccccc3)c3ccccc32)CC1 | inactive
36 | C/C(=N\NC(=O)c1ccncc1)c1cccnc1 | inconclusive: 89.1 µM [inhibitor, single point]
37 | CCN(CC(=O)Nc1ccc(C)c(S(=O)(=O)N2CCOCC2)c1)Cc1ccccc1 | inconclusive: 100 µM [inhibitor, single point]
38 | CCOC(=O)c1ccc(NC(=O)Cn2cccc2)cc1 | inconclusive: 70.8 µM [inhibitor, single point]
39 | O=C(N/N=C/c1ccco1)c1[nH]ncc1Br | inconclusive: 89.1 µM [inhibitor, single point]
40 | COc1ccc(-c2sc3ccc(N4CCOCC4)cc3c2C#CC(C)(C)O)cc1 | active: 50.1 µM
41 | COc1cc(NS(=O)(=O)c2ccc(Br)cc2)c(OC)cc1NC(=O)c1ccco1 | inconclusive: 44.7 µM [inhibitor, partial curve]
42 | COc1cc(/C=N/Nc2nc(=O)[nH]nc2C)cc([N+](=O)[O-])c1O | inactive
43 | Nc1nc(CSC(=S)N2CCN(c3ccccc3)CC2)nc(Nc2ccccc2)n1 | inconclusive: 39.8 µM [inhibitor, partial curve]
44 | O=C(O)c1cccnc1Cl | inconclusive: 63.1 µM [inhibitor, partial curve, poor fit]
45 | CCCCNC(=O)c1ccccc1SCc1c(C)noc1C | inactive
46 | COc1ccccc1N1CCN(/N=C/c2ccc(C(=O)O)cc2)CC1 | inactive
47 | CCc1ccc(-c2nc(CN3CCC(C(=O)NCCN(CC)c4ccccc4)CC3)c(C)o2)cc1 | inconclusive: 7.94 µM [inhibitor, full curve]
48 | Oc1ccccc1-c1nc(NCC2CCCO2)c2ccccc2n1 (centres undefined) | inactive
49 | Cc1cccnc1NC(=O)CCn1c(=O)oc2ccccc21 | inactive
50 | CC(=O)Nc1ccc(/C(C)=N/Nc2nc(Nc3cccc4ccccc34)nc(N3CCOCC3)n2)cc1 | inconclusive: 28.2 µM [inhibitor, partial curve]

Row | Compound | Potency
51 | O=C(Nc1ccc2oc(-c3ccccc3)nc2c1)c1cc(-n2cnnc2)ccc1Cl | inconclusive: 89.1 µM [inhibitor, single point]
52 | CN1CCN(c2nc(-c3cccs3)cs2)CC1 | inconclusive: 79.4 µM [inhibitor, single point]
53 | CC(C)(C)c1cc(Br)c(O)c(N=Nc2ccc(S(=O)(=O)N3CCOCC3)cc2)c1 | active: 7.94 µM
54 | FC(F)(F)c1cccc(-c2nnc(-c3ccccc3)c(N3CCOCC3)n2)c1 | inconclusive: 89.1 µM [inhibitor, single point]
55 | COc1ccc(C(=O)NCCc2csc(-c3ccc(Cl)cc3)n2)c(OC)c1 | inactive
56 | Cc1cc(C)cc(C(=O)NC(=S)Nc2cccnc2)c1 | inconclusive: 70.8 µM [inhibitor, single point]
57 | O=C(O)c1cccc(NS(=O)(=O)c2ccc3c(c2)C(=O)c2ccccc2C3=O)c1 | inconclusive: 79.4 µM [inhibitor, single point]
58 | Oc1ccc(NCc2ccccc2OCc2ccccc2)cc1 | active: 28.2 µM
59 | O=C(CN1CCN(c2ccccn2)CC1)N(c1ccccc1)c1ccc2ccccc2c1 | inconclusive: 50.1 µM [inhibitor, partial curve]
60 | O=C(COC(=O)COc1cccc(C(F)(F)F)c1)NC1CCCC1 | inconclusive: 70.8 µM [inhibitor, partial curve, poor fit]
61 | O=C(CC(c1ccccc1)c1ccco1)Nc1nccs1 (centres undefined) | inconclusive: 31.6 µM [inhibitor, full curve]
62 | CCOC(=O)Nc1sc2c(c1C#N)CCC(C)C2 (centres undefined) | inactive
63 | CCOC(=O)c1c(CSc2ccccc2)n(C)c2cc(Br)c(O)c(CN(C)C)c12 | inconclusive: 39.8 µM [inhibitor, partial curve]
64 | O=C(/C=C/Nc1ccccc1)c1ccccc1 | inconclusive: 6.31 µM [inhibitor, single point]
65 | Cc1cc(OC(=O)c2cc(Br)ccc2Cl)c([N+](=O)[O-])c(=O)[nH]1 | inconclusive: 89.1 µM [inhibitor, single point]
66 | CCc1n(CC(O)COCc2ccccc2)c2ccccc2[n+]1C (centres undefined) | inconclusive: 89.1 µM [inhibitor, single point]
67 | COc1ccc(-c2nc(S(=O)(=O)c3ccccc3)c(N3CCC(C)CC3)o2)cc1 | inactive
68 | COc1ccc(/C=N/Nc2nncc3ccccc23)c(OC)c1 | inconclusive: 31.6 µM [inhibitor, full curve, poor fit]
69 | CCOC(=O)C1=C(SCC)c2cc3c(n2C1=O)CCCC3 | active: 10 µM
70 | CC(=O)C1C(c2ccc([N+](=O)[O-])cc2)c2c(noc2C)CC1(C)O (centres undefined) | inactive
71 | CCN(CC)CCNC(=O)c1cc2c(-c3cccc(OC)c3)nn(C)c2s1 | inactive
72 | Cn1cccc1/C=N/N1CCN(c2ccccn2)CC1 | active: 50.1 µM
73 | O=C(Nc1ccc(F)c(F)c1)C(c1ccccc1)N1Cc2ccccc2C1=O (centres undefined) | inactive
74 | COc1c2c(cc3c1C(CC(O)Cc1ccccc1)N(C)CC3)OCO2 (centres undefined) | inconclusive: 79.4 µM [inhibitor, single point]
